In the BET-seq Pho4 binding data (Le et al. 2018):
Some of the results follow. The energies were worked out here from pooled read counts, against the library average; single values are noisy.

What follows are sequences tested against T1, Pho4 (S. cerevisiae) (UniProt P07270) (assay: relative binding free energy (BET-seq); higher = weaker binding). Conditions: reference: library average.
T1 sequence: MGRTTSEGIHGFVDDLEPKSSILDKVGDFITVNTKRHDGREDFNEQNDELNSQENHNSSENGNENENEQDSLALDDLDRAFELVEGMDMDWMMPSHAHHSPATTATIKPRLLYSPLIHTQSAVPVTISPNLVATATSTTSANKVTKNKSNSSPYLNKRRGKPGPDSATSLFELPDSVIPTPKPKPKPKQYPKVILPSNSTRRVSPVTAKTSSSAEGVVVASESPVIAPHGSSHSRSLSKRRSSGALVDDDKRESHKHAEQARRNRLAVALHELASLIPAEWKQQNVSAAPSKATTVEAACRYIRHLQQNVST

Sequence | relative binding free energy
AGTAACACGTGTGTGA | 0 kcal/mol
AGCTGCACGTGAGTTT | 0.26 kcal/mol
CGAGGCACGTGTGATG | 0.02 kcal/mol
TGAGCCACGTGGGGGG | -0.27 kcal/mol
CGCGGCACGTGAGGTT | 0.13 kcal/mol
TATTGCACGTGATCGG | -0.03 kcal/mol
CTTTTCACGTGTGAGT | 0.18 kcal/mol
GTCGGCACGTGGTATA | -0.22 kcal/mol
TGTTTCACGTGATTCG | 0.44 kcal/mol
GTAACCACGTGGGGGT | -0.07 kcal/mol
GTGGCCACGTGTTATG | -0.12 kcal/mol
TTTATCACGTGATCGA | 0.18 kcal/mol
TGTAGCACGTGGGGAC | -0.17 kcal/mol
ATGAGCACGTGTTTGA | -0.13 kcal/mol
TGTGACACGTGTTTTT | 0.03 kcal/mol
TTTAACACGTGTTAAA | -0.06 kcal/mol
ATGAGCACGTGGGTTT | -0.04 kcal/mol
AGTGCCACGTGGAGGG | -0.08 kcal/mol
AGTTGCACGTGCAGAT | 0.02 kcal/mol
TGACTCACGTGTGTGT | 0.29 kcal/mol
ACGCACACGTGGTGGG | -0.09 kcal/mol
CTAGACACGTGATGGT | 0.01 kcal/mol
GTGGGCACGTGCAGGA | -0.06 kcal/mol
GTATACACGTGTGTCG | -0.04 kcal/mol
TTAATCACGTGGTAAG | 0.19 kcal/mol
TGGGACACGTGGCGCT | -0.03 kcal/mol

Sequence | relative binding free energy
TGAGGCACGTGCTGCG | -0.31 kcal/mol
TGTGCCACGTGTTCGT | -0.21 kcal/mol
AGGGTCACGTGGTGTA | 0.13 kcal/mol
GTGGGCACGTGTCAGC | -0.05 kcal/mol
ATGCACACGTGGGGGC | -0.13 kcal/mol
TTGTGCACGTGGGCTA | -0.23 kcal/mol
GACTTCACGTGGGGTT | 0.17 kcal/mol
TATCGCACGTGGGTGT | -0.36 kcal/mol
GTTTTCACGTGTGTTG | 0.28 kcal/mol
GTAGGCACGTGCGGGG | -0.12 kcal/mol
TATGGCACGTGTCATT | -0.16 kcal/mol
AGTGGCACGTGATGTG | 0 kcal/mol
ACGGCCACGTGTAGGA | 0.29 kcal/mol
CGGGCCACGTGGGTTA | -0.23 kcal/mol
CGTGTCACGTGATCGG | 0.23 kcal/mol
TTATTCACGTGGCAGG | 0.23 kcal/mol
ATGTCCACGTGTGGAG | 0.12 kcal/mol
ATCGGCACGTGGGGAG | -0.2 kcal/mol
AGTCTCACGTGTTTGT | 0.28 kcal/mol
ATTTTCACGTGATCTA | 0.31 kcal/mol
ATGTTCACGTGATTTT | 0.36 kcal/mol
TAGCTCACGTGGAAGT | 0.28 kcal/mol
CGCGGCACGTGGTTGG | -0.06 kcal/mol
TTATGCACGTGCTCGG | -0.17 kcal/mol
GCTTTCACGTGCGGGG | 0.26 kcal/mol
TGGGACACGTGACATG | 0.24 kcal/mol

Sequence | relative binding free energy
GCTATCACGTGGTTTT | 0.19 kcal/mol
GAGTTCACGTGCGTTG | 0.14 kcal/mol
TTATTCACGTGTATGG | 0.25 kcal/mol
ATTATCACGTGATATG | 0.27 kcal/mol
TCGGTCACGTGTGTCT | 0.11 kcal/mol
GTGTTCACGTGGTATA | 0.1 kcal/mol
GGCGGCACGTGGCCGG | -0.27 kcal/mol
TGTATCACGTGTAGGG | 0.21 kcal/mol
TATGGCACGTGTCTGA | -0.05 kcal/mol
AAAGGCACGTGGGGAA | -0.27 kcal/mol
TACTGCACGTGTTTTT | -0.05 kcal/mol
TTGTGCACGTGCGTAC | -0.02 kcal/mol
ATAATCACGTGTATAT | 0.01 kcal/mol
GATGTCACGTGTAATT | 0.28 kcal/mol
GGGGGCACGTGAAAGG | 0.24 kcal/mol
TCGTGCACGTGGTGGC | -0.06 kcal/mol
GGTTGCACGTGGCAGG | 0 kcal/mol
TGACACACGTGATGTT | 0.05 kcal/mol
TTGCTCACGTGAGGTA | 0.26 kcal/mol
CTGGTCACGTGGTTTT | 0.06 kcal/mol
TTTTCCACGTGGGAGG | 0.09 kcal/mol
TGGCGCACGTGATATG | 0.2 kcal/mol
GTGTTCACGTGTGCGA | 0.26 kcal/mol
GTGTTCACGTGGATAT | 0.43 kcal/mol
TCTGTCACGTGTTAGC | 0.17 kcal/mol
CTGTTCACGTGGGGGT | 0.1 kcal/mol

Sequence | relative binding free energy
TTCTGCACGTGCGGAG | 0.01 kcal/mol
TGCGTCACGTGCTGTG | 0.05 kcal/mol
TTTCACACGTGTTGGG | 0.19 kcal/mol
TCCATCACGTGTTTTT | 0.31 kcal/mol
GGAGGCACGTGGTCTA | -0.14 kcal/mol
GTTTTCACGTGAATGC | 0.48 kcal/mol
TGTGACACGTGTTAAG | 0.06 kcal/mol
ATAATCACGTGAAATT | 0.34 kcal/mol
CGGTTCACGTGTTCAG | 0.35 kcal/mol
GAGGCCACGTGGAGGA | 0.03 kcal/mol
TCGGACACGTGTGTCG | 0.06 kcal/mol
TTAGACACGTGAATGT | 0.27 kcal/mol
CTTTACACGTGATTTG | 0.12 kcal/mol
ATGTGCACGTGTGTAC | -0.11 kcal/mol
AACGGCACGTGGGAGG | -0.16 kcal/mol
AATATCACGTGTTGCA | 0.32 kcal/mol
TGAGTCACGTGAAAAG | 0.28 kcal/mol
GGTCGCACGTGTGGGA | 0.1 kcal/mol
TAGTTCACGTGTAGGT | 0.4 kcal/mol
AGTTGCACGTGGATAT | -0.03 kcal/mol
GGGTGCACGTGTTCTG | 0.06 kcal/mol
TAGGGCACGTGGATGG | -0.16 kcal/mol
AGGATCACGTGATATT | 0.31 kcal/mol
TGTAACACGTGTCAGG | 0.07 kcal/mol
CGATTCACGTGTGAGT | 0.3 kcal/mol
TTATGCACGTGAATGA | 0.27 kcal/mol

Sequence | relative binding free energy
GTAGGCACGTGAGAGT | 0.23 kcal/mol
TTTGTCACGTGGAGAT | 0.24 kcal/mol
ATGGGCACGTGAACGG | 0.07 kcal/mol
AGTTGCACGTGTTAGT | -0.08 kcal/mol
GTTCGCACGTGTGTTG | 0.06 kcal/mol
GTTAACACGTGTATGT | 0.03 kcal/mol
TGCGGCACGTGCGGGT | -0.13 kcal/mol
CTTTACACGTGAGTTT | 0.26 kcal/mol
TTTTACACGTGATCGG | 0.29 kcal/mol
TTCGGCACGTGAGCGG | 0.08 kcal/mol
TTGGTCACGTGGGATC | 0.1 kcal/mol
GGCTTCACGTGGGGTT | 0.25 kcal/mol
GGTCTCACGTGTGTGG | 0.31 kcal/mol
CATGGCACGTGGGTTC | -0.18 kcal/mol
TGTGGCACGTGTATAA | -0.12 kcal/mol
GAGGGCACGTGCTTGA | -0.12 kcal/mol
AGGAGCACGTGGTTTC | -0.02 kcal/mol
AGATTCACGTGGTGCA | 0.19 kcal/mol
TTTCTCACGTGTTAGG | 0.36 kcal/mol
TTGAACACGTGGCGTG | 0.12 kcal/mol
GGTCTCACGTGGGGAC | 0.12 kcal/mol
GGGAGCACGTGATAGA | 0.02 kcal/mol
GGTAGCACGTGACGGG | 0.22 kcal/mol
ATCGCCACGTGGGGGG | -0.23 kcal/mol
TTGGGCACGTGTGGAA | -0.09 kcal/mol
TTGCTCACGTGTTGTG | 0.23 kcal/mol

Sequence | relative binding free energy
GCGGTCACGTGAAAGT | 0.43 kcal/mol
TTCAACACGTGAGTGG | 0.34 kcal/mol
GTGAGCACGTGGAAGG | 0.03 kcal/mol
ATTTGCACGTGTCATT | -0.08 kcal/mol
GGCGGCACGTGGGAAA | 0.03 kcal/mol
GGGGACACGTGAAGAT | 0.27 kcal/mol
TTATACACGTGAGTTT | 0.25 kcal/mol
GGGGGCACGTGTACAT | -0.08 kcal/mol
TGATTCACGTGCGAAT | 0.42 kcal/mol
TTTTACACGTGAGGAG | 0.19 kcal/mol
CGATGCACGTGTAGGA | 0.16 kcal/mol
CTTGTCACGTGAAGGT | 0.1 kcal/mol
CGCGGCACGTGAGAGG | 0.13 kcal/mol
GTTCGCACGTGAGTGG | 0.13 kcal/mol
TTGATCACGTGCTAGG | 0.05 kcal/mol
TGGGACACGTGAGGCG | 0.31 kcal/mol
TTGATCACGTGCGGGT | 0.14 kcal/mol
TTTGTCACGTGTGAAC | 0.2 kcal/mol
TACAGCACGTGTGTAT | 0.06 kcal/mol
ATGGGCACGTGCCGGT | -0.29 kcal/mol
ATAAGCACGTGAGTTG | 0.07 kcal/mol
ACAGTCACGTGATGTT | 0.17 kcal/mol
GTTGGCACGTGTTTAT | -0.05 kcal/mol
AGATGCACGTGTGGTG | -0.07 kcal/mol
AACGTCACGTGTGGTG | 0.11 kcal/mol
TATTGCACGTGTGGTT | 0.09 kcal/mol

Sequence | relative binding free energy
GGGCGCACGTGTTAAG | 0.1 kcal/mol
GGGAACACGTGAGGGC | 0.26 kcal/mol
GGGTGCACGTGCCGGC | -0.11 kcal/mol
GTGGACACGTGCCGGG | -0.12 kcal/mol
TGGTTCACGTGAGTGT | 0.33 kcal/mol
TCTGCCACGTGTAGGT | -0.04 kcal/mol
GGATTCACGTGGTAGC | 0.29 kcal/mol
AGGGTCACGTGGTTAT | 0.06 kcal/mol
GTAACCACGTGGGGCG | -0.1 kcal/mol
GTGGCCACGTGGGCGC | -0.13 kcal/mol
TGAAGCACGTGGGCGG | -0.16 kcal/mol
GGGCTCACGTGTAGTG | 0.21 kcal/mol
ATGTTCACGTGGTCAG | 0.01 kcal/mol
CTAGACACGTGGGGAT | -0.1 kcal/mol
ATTGCCACGTGTAAGT | 0.1 kcal/mol
GGCGTCACGTGGTGGG | 0.09 kcal/mol
TTGCTCACGTGAGGGA | 0.41 kcal/mol
ATAGGCACGTGGGGAC | -0.26 kcal/mol
TGTATCACGTGCTGTG | -0.04 kcal/mol
TTGGACACGTGTGTCA | 0.11 kcal/mol
GGTCGCACGTGGTGCA | -0.17 kcal/mol
CTTGTCACGTGTATGA | -0.04 kcal/mol
GGTGTCACGTGATGAG | 0.28 kcal/mol
ATATACACGTGCGTTT | -0.12 kcal/mol
ATAGTCACGTGAAATT | 0.3 kcal/mol
AGAGGCACGTGAAGTA | 0.12 kcal/mol

Sequence | relative binding free energy
AATAGCACGTGGTTTG | -0.09 kcal/mol
TCTAGCACGTGCGGTT | -0.08 kcal/mol
GTGTGCACGTGAAAGA | 0.18 kcal/mol
GTGCTCACGTGCATGG | 0.08 kcal/mol
GGTGGCACGTGATTCG | 0.11 kcal/mol
GTGGGCACGTGGTACT | -0.14 kcal/mol
GTGTTCACGTGTAGTA | 0.29 kcal/mol
GCTTTCACGTGTAAGG | 0.45 kcal/mol
GGGTCCACGTGAGGTA | 0.21 kcal/mol
ATGTTCACGTGTTAAG | 0.13 kcal/mol
TGCAGCACGTGTGGGT | -0.1 kcal/mol
CTGTGCACGTGTGTAG | -0.09 kcal/mol
TGATTCACGTGGTTCA | 0.38 kcal/mol
TGACTCACGTGGTGTG | 0.18 kcal/mol
GGGGACACGTGGGTCT | -0.15 kcal/mol
AGTTTCACGTGTACGT | 0.27 kcal/mol
ACTTTCACGTGTTGAG | 0.14 kcal/mol
TCGTGCACGTGAGGGA | 0.09 kcal/mol
ACTTTCACGTGGGGAA | 0.21 kcal/mol
AAGGGCACGTGGGTGC | -0.2 kcal/mol
GAGGGCACGTGCATTG | -0.15 kcal/mol
TTATACACGTGCTAGT | -0.06 kcal/mol
CCTAGCACGTGGTGGG | -0.22 kcal/mol
TTCCTCACGTGGTTGG | 0.26 kcal/mol
ATCGACACGTGTGGAT | 0.13 kcal/mol
GAGAGCACGTGTGAGA | 0.1 kcal/mol

Sequence | relative binding free energy
TTATTCACGTGTGACT | 0.2 kcal/mol
GGTCACACGTGGATTA | 0.15 kcal/mol
AAGCGCACGTGGTAGT | -0.18 kcal/mol
TTGGACACGTGGCGGA | 0.1 kcal/mol
GGATTCACGTGTTGCT | 0.29 kcal/mol
GGGGGCACGTGCGGGT | -0.06 kcal/mol
CTGGGCACGTGGGTAA | -0.16 kcal/mol
TTCGTCACGTGAGGTG | 0.23 kcal/mol
AGAGGCACGTGTGTTG | -0.02 kcal/mol
GGGCTCACGTGGTGGC | 0.38 kcal/mol
AGGAGCACGTGAATTG | 0.09 kcal/mol
GAGGTCACGTGGTGAA | 0.04 kcal/mol
CGTTTCACGTGGGGAA | 0.25 kcal/mol
ACGTGCACGTGTTGGT | -0.22 kcal/mol
TTGGTCACGTGATATT | 0.18 kcal/mol
GCTTTCACGTGCTGTT | 0.28 kcal/mol
AGATTCACGTGGCGGG | 0.37 kcal/mol
GGAGTCACGTGTGACG | 0.17 kcal/mol
GGAGTCACGTGCTCGT | 0.05 kcal/mol
ATAAGCACGTGCAGGG | -0.21 kcal/mol
AGTTGCACGTGACTTG | 0.16 kcal/mol
TACTGCACGTGTCGGG | 0.06 kcal/mol
